Screen size: about 91,000 compounds; about 290 (0.32%) were called active. This list was built around the results that the source calls inconclusive (neither active nor inactive); the mix of calls is not that of the screen. Calls follow the shape of the dose curve; as a rule, active = well fitted inhibition curve with a large enough effect; inconclusive = small, poorly fitted or top-dose-only effect; inactive = no such curve, though single readings can be large or run the other way. Where the call is inconclusive, the potency comes from a doubtful curve fit.
Biological target: Single-stranded DNA cytosine deaminase (Homo sapiens) (UniProt Q9GZX7)
Test: Primary qHTS assay for inhibitors of Activation Induced Cytidine Deaminase (AID): AID signal; also: nearly all actives have a fitted effect of over 25% in size
Conditions: AID deamination FRET fluorescence, UDG-coupled, 4 h; series mostly up to 115 µM
Potency is read from the fitted curve at half-maximal effect; tags tell the direction and shape of the fitted curve.

Sequence of UniProt Q9GZX7 (Q9GZX7 whole entry, looked up): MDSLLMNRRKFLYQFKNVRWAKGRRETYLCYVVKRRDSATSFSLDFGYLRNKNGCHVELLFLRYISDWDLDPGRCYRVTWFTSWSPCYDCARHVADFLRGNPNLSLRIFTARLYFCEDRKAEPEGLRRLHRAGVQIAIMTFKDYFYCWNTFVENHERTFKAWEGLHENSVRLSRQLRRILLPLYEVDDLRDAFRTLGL

Compound	Potency
COc1ccc(Cn2c(=O)c3cccnc3n(Cc3cccc(F)c3)c2=O)cc1	inconclusive: 39.8 µM [inhibitor, full curve]
COc1cccc(-c2nc(S(=O)(=O)c3ccc(C)cc3)c(N3CCCCC3)o2)c1	inconclusive: 56.2 µM [inhibitor, partial curve, poor fit]
O=C(Cc1c[nH]c2ccccc12)N1CCN(C(=O)NC2CCCC2)CC1	inactive
CCn1cc2nc(SCC(=O)Nc3ccccc3C(F)(F)F)n(Cc3ccc(C)cc3)c(=O)c2n1	inconclusive: 56.2 µM [inhibitor, partial curve, poor fit]
CCn1cc(C(=O)N2CCN(c3cccc(C)c3C)CC2)c2cc(OC)c(OC)cc2c1=O	inactive
CCCCN(CC)CCCNC(=O)c1nn(C)c2c1CSc1ccccc1-2	inconclusive: 31.6 µM [inhibitor, partial curve, poor fit]
CC1Cc2ccccc2N1S(=O)(=O)c1nnc(NC(=O)c2ccccc2)s1 (configuration not stated)	inactive
Cc1ccc(Cn2c(C(C)NC(=O)c3ccccc3)nc3ccccc32)cc1 (configuration not stated)	inconclusive: 25.1 µM [inhibitor, full curve]
CC(=O)Nc1ccc(N2C(=O)C/C(=C/c3cn(C)c4ccccc34)C2=O)cc1	inconclusive: 44.7 µM [inhibitor, partial curve]
COc1ccc(-c2nc3scc(CCNC(=O)c4cccc(Br)c4)n3n2)cc1	inconclusive: 39.8 µM [inhibitor, single point]
Fc1cccc(NC(=S)NCCCCc2ccccc2)c1	inactive
CC(C)N(Cc1ccccc1)C(=O)C1CCCN(c2ncnc3onc(-c4ccc(F)cc4)c23)C1 (configuration not stated)	inconclusive: 39.8 µM [inhibitor, single point]
COc1ccc2[nH]cc(CCNC(=O)c3cnn(-c4ccc(C)cc4)c3C3CCN(C(=O)OC(C)(C)C)CC3)c2c1	inconclusive: 22.4 µM [inhibitor, partial curve, poor fit]
CCC(C)(C)c1ccc(OCC(O)CNCc2ccccc2)c(C(C)(C)CC)c1 (configuration not stated)	inactive
COc1ccc(OC)c(CCNC(=O)c2cnn(-c3ccc(C)cc3C)c2C2CCN(C(=O)OC(C)(C)C)CC2)c1	inconclusive: 39.8 µM [inhibitor, partial curve, poor fit]
CC1Cc2ccccc2N1S(=O)(=O)c1nnc(NC(=O)c2cccc(F)c2)s1 (configuration not stated)	inconclusive: 70.8 µM [inhibitor, partial curve, poor fit]
Cc1ccc2c(c1)-c1onc(C(=O)N3CCN(c4cc(Cl)ccc4C)CC3)c1CO2	inconclusive: 3.55 µM [inhibitor, full curve, poor fit]
